Measurements taken from PubChem BioAssay AID1476 (National Center for Advancing Translational Sciences (NCATS), 2009).
The whole screen tested about 200,000 compounds, of which about 4,500 (2.2%) were called active. Inconclusive results, whose numbers are uncertain, are shown with a selection of clear calls. The call rests on the fitted dose curve; in most records, active means well fitted inhibition curve with a large enough effect; inconclusive means small, poorly fitted or top-dose-only effect, or effect the other way; inactive means flat fitted curve, though single readings scatter. A potency beside an inconclusive call is a rough fit, not a confirmed value.

Biological target: Cruzipain (Trypanosoma cruzi) (UniProt P25779)
Sequence of UniProt P25779 (P25779 whole entry, looked up): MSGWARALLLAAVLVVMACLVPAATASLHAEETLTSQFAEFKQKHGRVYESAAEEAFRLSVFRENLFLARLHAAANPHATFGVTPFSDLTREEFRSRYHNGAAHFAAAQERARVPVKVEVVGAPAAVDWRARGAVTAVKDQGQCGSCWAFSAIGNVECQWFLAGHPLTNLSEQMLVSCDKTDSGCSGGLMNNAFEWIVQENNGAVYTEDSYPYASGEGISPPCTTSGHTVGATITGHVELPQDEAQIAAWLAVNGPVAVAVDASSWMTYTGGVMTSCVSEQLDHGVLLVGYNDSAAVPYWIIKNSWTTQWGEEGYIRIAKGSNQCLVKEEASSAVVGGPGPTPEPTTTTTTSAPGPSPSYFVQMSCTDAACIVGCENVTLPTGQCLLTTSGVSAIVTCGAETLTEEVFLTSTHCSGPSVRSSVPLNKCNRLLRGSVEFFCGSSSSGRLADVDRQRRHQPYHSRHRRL
Experiment: qHTS Assay for Promiscuous and Specific Inhibitors of Cruzain (without detergent); further: nearly all actives have a fitted effect of over 40% in size;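 on max response, negative = inhibition: plate controls were enzyme without inhibitor for no effect and buffer without enzyme for full effect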
Conditions: purified cruzain, Z-FR-AMC fluorescence, no detergent
Summary of the method: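 Purified cruzain at 1.5 nM, pre-incubated 15 min with compound at room temperature in 100 mM sodium acetate pH 5.5, 5 mM DTT, 0.00005% Triton X-100. Reaction started with 2 uM Z-FR-AMC; AMC fluorescence increase over 60 s gives rate.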
Potency means the concentration at half of the fitted maximal effect; tags describe the fitted curve by direction and shape.

Row | Structure (SMILES) | Potency | max response, negative = inhibition
1 | N#C/C(=C\c1cn(-c2ccccc2)nc1-c1cccnc1)c1nnc2n1CCCCC2 | inconclusive: 31.6 µM [activator, single point] | 
2 | N#Cc1ccc(C23CC4(C2)[C@H](CN(Cc2ccc(-c5ccccc5)cc2)[C@@H]4c2ccccc2)C3c2ccc(C(F)(F)F)cc2)cc1 (some centres not stated) | inconclusive: 3.16 µM [inhibitor, full curve] | 
3 | O=C(CCn1nc(-c2ccc(Cl)cc2)c2ccccc2c1=O)NCC1CCCO1 (configuration not stated) | inconclusive: 3.98 µM [inhibitor, single point] | 
4 | Cc1ccc(S(=O)(=O)Nc2ccc(-c3nnc(SCc4ccccc4Cl)o3)cc2)cc1 | inconclusive: 39.8 µM [inhibitor, single point] | 
5 | CCCCC(C)C(OC(=O)CC(CC(=O)O)C(=O)O)C(CC(C)CC(O)CCCCC(O)CC(O)C(C)N)OC(=O)CC(CC(=O)O)C(=O)O (configuration not stated) | inconclusive: 25.1 µM [activator, partial curve] | 
6 | O=C(c1ccccc1)c1ccc2nc(-c3ccc(NC(=O)c4ccccc4Br)cc3)[nH]c2c1 |  | inactive: 2.53%
7 | COC(=O)c1cc(-c2ccc(OC)c(OC)c2)c2c(=O)[nH]c(=O)n(C)c2n1 | inconclusive: 3.16 µM [activator, full curve, poor fit] | 
8 | CCOC(=O)CSc1nnc(-c2ccc(S(=O)(=O)N3CCOCC3)cc2)n1-c1ccccc1 | inconclusive: 31.6 µM [activator, single point] | 
9 | CCOC(=O)c1cc2c(=O)n3ccccc3nc2n(CC2CCCO2)c1=NC(C)=O (configuration not stated) | active: 10 µM | 
10 | Cc1cc(O)ccc1NC(=O)c1ccccc1 | inconclusive: 3.98 µM [inhibitor, single point] | 
11 | CCOC(=O)c1c(NC(=O)CSc2nnnn2CC)sc(C)c1C | inconclusive: 39.8 µM [activator, single point] | 
12 | CCOC(=O)CSc1nc2cc(C(=O)NCc3ccco3)ccc2c(=O)n1C1CCCCC1 | inconclusive: 31.6 µM [inhibitor, single point] | 
13 | COc1ccc(N2CCC(CNC(=O)Nc3cccc(OC)c3)C2)cc1 (configuration not stated) | inconclusive: 1.58 µM [inhibitor, full curve, poor fit] | 
14 | Cc1nn(-c2ccc3nnc(C)n3n2)c(C)c1CCC(=O)Nc1ccc(OC(F)(F)F)cc1 |  | inactive: -7.45%
15 | CC(=O)c1ccc(NC(=O)c2ccc(-c3nc(COc4ccc(C)cc4)c(C)o3)cc2)cc1 | active: 1 µM | 
16 | CS(=O)(=O)c1nc(-c2ccc(Br)cc2)cc(-c2ccccc2)c1C#N | inconclusive: 31.6 µM [inhibitor, single point] | 
17 | CCOC(=O)c1cc(CC)sc1NC(=O)C1CC(=O)NN1Cc1ccccc1 (configuration not stated) | inconclusive: 39.8 µM [activator, single point] | 
18 | CCOc1ccc(CNC(=O)C2CCCN(S(=O)(=O)N(C)c3ccc(F)cc3)C2)cc1OC (configuration not stated) | inconclusive: 31.6 µM [activator, partial curve] | 
19 | Cc1ccc(C(O)P(=O)(OC2CCCCC2)OC2CCCCC2)cc1 (configuration not stated) | inconclusive: 12.6 µM [activator, partial curve] | 
20 | N#Cc1c(-c2ccccc2)cc(-c2ccccc2)nc1Br | inconclusive: 25.1 µM [inhibitor, single point] | 
21 | O=C1CCCC/C1=C\Nc1ccc(O)cc1 |  | inactive: -4.74%

Row | Structure (SMILES) | Potency | max response, negative = inhibition
22 | CCOc1ccc(C(=O)c2cnc3ccc(Cl)cc3c2S(=O)(=O)c2ccc(C)cc2)cc1 |  | inactive: 11.3%
23 | Cc1cccc([N+](=O)[O-])c1NC(=O)CN(Cc1ccccc1)Cc1ccccc1 |  | inactive: -2.87%
24 | CCN(CC)S(=O)(=O)c1ccc2c(c1)nc(SCC(N)=O)n2-c1ccc(OC)cc1 | inconclusive: 31.6 µM [activator, single point] | 
25 | COCCCNC(=O)CN(c1cccc(Cl)c1C)S(C)(=O)=O | inconclusive: 6.31 µM [activator, single point] | 
26 | O=C(CSc1ccc2c(c1)OCCO2)NCc1ccco1 | inconclusive: 31.6 µM [inhibitor, single point] | 
27 | COc1cc(NC(=S)NC(=O)CC(C)C)ccc1NC(=O)c1cc2ccccc2o1 | inconclusive: 0.398 µM [inhibitor, full curve, poor fit] | 
28 | Cc1cc(C(=O)CSc2nnc(-c3ccco3)o2)c(C)n1CC1COc2ccccc2O1 (configuration not stated) | inconclusive: 31.6 µM [inhibitor, single point] | 
29 | O=C1C=CC(=Nc2cccc3c(N=C4C=CC(=O)O4)cccc23)O1 |  | inactive: -8.14%
30 | O=C(Nc1nc(-c2ccccc2)cs1)c1cccc(S(=O)(=O)N2CCN(Cc3ccccc3)CC2)c1 | inconclusive: 39.8 µM [inhibitor, partial curve, poor fit] | 
31 | COc1cccc(/C=C2/SC(=O)N(CC(=O)N3CCc4ccccc4C3)C2=O)c1OCC(=O)O | inconclusive: 31.6 µM [activator, single point] | 
32 | COc1ccc(C(=O)N2CCC(c3nc(-c4ccc(S(=O)(=O)N5CCCC5)cc4)no3)CC2)cc1 | inconclusive: 39.8 µM [activator, single point] | 
33 | CC1CCc2c(C(=O)OCC(=O)Nc3cccc(S(=O)(=O)N4CCCCCC4)c3)csc2C1 (configuration not stated) | inconclusive: 39.8 µM [inhibitor, single point] | 
34 | CN(C)Cc1cc(C(C)(C)C)ccc1-c1ccc(C(C)(C)C)cc1CN(C)C |  | inactive: 2.13%
35 | Cc1cccc(NC(=O)c2ccc(-c3nc(CSc4ccccc4)c(C)o3)cc2)c1C | inconclusive: 39.8 µM [inhibitor, single point] | 
36 | Cc1nc2sc(C(N)=O)c(N)c2c(-c2ccc(Br)cc2)c1C(=O)Nc1ccc(Cl)cc1 | inconclusive: 39.8 µM [activator, single point] | 
37 | CCOc1ccc(Br)cc1S(=O)(=O)Nc1ccc(NC(=O)c2ccccc2C)cc1 | inconclusive: 39.8 µM [inhibitor, single point] | 
38 | COc1ccc(C(=O)N2CCC3(CCCN(c4cccc(-c5ccccc5)c4)C3)CC2)cc1 | inconclusive: 25.1 µM [inhibitor, single point] | 
39 | COc1cccc(NC(=O)Cn2c(=O)n(CCCCC(=O)NCCc3ccccc3)c(=O)c3ccccc32)c1 |  | inactive: 3.78%
40 | O=C(CSc1nnc(CNc2ccc(Cl)cc2)o1)Nc1nc2ccccc2s1 | inconclusive: 31.6 µM [inhibitor, single point] | 
41 | CCOC(=O)C1=C(CN2CCN(c3cc(C)ccc3C)CC2)NC(=O)NC1c1ccc(Cl)cc1 (configuration not stated) |  | inactive: -0.0299%
42 | CCS(=O)(=O)N1CCc2cc(C(=O)Nc3cc(C(F)(F)F)ccc3Cl)ccc21 |  | inactive: -1.44%

Row | Structure (SMILES) | Potency | max response, negative = inhibition
43 | COc1cccc(NC(=O)Cc2nc(-c3ccccc3)sc2-c2ccc(C)cc2)c1 | inconclusive: 39.8 µM [inhibitor, single point] | 
44 | CC(C)N(CCC(=O)c1ccc2ccccc2c1)Cc1ccccc1 | active: 7.94 µM | 
45 | CCn1ccc2cc(S(=O)(=O)N3CCCN(C(=O)NCCOC)CC3)ccc21 |  | inactive: 3.39%
46 | COc1ccc(C)cc1NS(=O)(=O)c1ccc2[nH]c(=O)c(=O)[nH]c2c1 |  | inactive: -15.4%
47 | Cc1nn(Cc2ccc(F)cc2)c(C)c1NC(=O)c1cc(-c2ccc3c(c2)OCO3)on1 | inconclusive: 39.8 µM [inhibitor, single point] | 
48 | CCNC(=S)N(CCc1c(C)[nH]c2ccccc12)Cc1cc(OC)c(OC)c(OC)c1 | inconclusive: 39.8 µM [activator, single point] | 
49 | CCOc1ccc(S(=O)(=O)Nc2ccccc2C(=O)NCc2ccco2)cc1 |  | inactive: 6.21%
50 | CCc1ccccc1Nc1nc2ccccc2n2cnnc12 |  | inactive: 9.36%
51 | CC(NC(=O)c1ccc(F)cc1)c1nc2ccccc2n1Cc1ccccc1F (configuration not stated) |  | inactive: 3%
52 | Cc1ccc(-c2nn(-c3ccccc3)cc2C2CC(c3cccs3)=NN2C(=O)CCC(=O)O)cc1 (configuration not stated) | inconclusive: 25.1 µM [activator, partial curve] | 
53 | O=C(O)CCSc1nnc(CNc2ccc(Cl)cc2)n1Cc1ccccc1 | inconclusive: 31.6 µM [activator, single point] | 
54 | O=C(Cn1nnc(-c2ccccc2NC(=O)c2ccccc2)n1)Nc1ccc2c(c1)OCCO2 | inconclusive: 0.1 µM [activator, full curve, poor fit] | 
55 | O=c1cc(-c2ccccc2)n2c(SCc3cccc([N+](=O)[O-])c3)nnc2[nH]1 |  | inactive: 15.9%
56 | O=S1(=O)c2ccccc2N=NN1Cc1ccc(Cl)c(Cl)c1 | inconclusive: 31.6 µM [inhibitor, single point] | 
57 | CNS(=O)(=O)c1cn(CC(=O)N2CCN(c3cc(C)ccc3C)CC2)cc1S(=O)(=O)NC | inconclusive: 39.8 µM [activator, single point] | 
58 | O=C(CCCn1c(=O)c2sccc2n(Cc2cccc(Cl)c2)c1=O)NCc1ccc2c(c1)OCO2 |  | inactive: 0.171%
59 | CC(=O)N1CCc2cc3nc(C)cc(C)c3cc21 | inconclusive: 39.8 µM [activator, single point] | 
60 | Cc1ccc(Cc2cnc(NC(=O)/C(C#N)=C/c3ccc(-c4ccccc4[N+](=O)[O-])o3)s2)cc1 | active: 10 µM | 
61 | Cc1cccc(C2=NN(c3ccccc3)[C@@H](C(=O)N3CCOC3=O)[C@@H]2c2ccc([N+](=O)[O-])cc2)c1 | inconclusive: 31.6 µM [inhibitor, single point] | 
62 | Cc1cccc(NC(=O)c2sc3nc(-c4ccccc4)cn3c2C)n1 | inconclusive: 25.1 µM [activator, single point] | 
